Laboratory results taken from patent publication US20200347136A1, “CONSTRAINED CYCLIC PEPTIDES AS INHIBITORS OF THE CD2:CD58 PROTEIN-PROTEIN INTERACTION FOR TREATMENT OF DISEASES AND AUTOIMMUNE DISORDERS” (Board of Supervisors for the University of Louisiana System, priority 2019, published 2020).

Test system: A549 Red-FLuc lung tumors
Assay: experimental metastasis model of lung cancer, A549 Red-FLuc cells
Conditions: 6 mg/kg i.v. twice a week, vs vehicle

Question: Which “rate of tumor growth, total flux (p/s)” value does the source give for `CC[C@H](C)[C@@H]1NC(=O)[C@H](CCCNC(=N)N)NC(=O)C[C@@H](c2cccc3ccccc23)NC(=O)[C@@H]2CSSC[C@H](NC(=O)C[C@@H](c3cccc4ccccc34)NC(=O)[C@H](CCCNC(=N)N)NC(=O)[C@@H]3CCCN3C(=O)[C@@H]3CCCN3C1=O)C(=O)N[C@@H](Cc1ccccc1)C(=O)N1CCC[C@H]1C(=O)N[C@@H](CC(=O)O)C(=O)N[C@@H](CC(=O)O)C(=O)N[C@@H](Cc1ccccc1)C(=O)N2` [SFTI-G5, Cyclo(C(S-X)RIPPR(S-X)CFPDDF)] here?
Answer: The value was “tumor growth was reduced compared to the control group”.
